Results: PubChem BioAssay AID1347417 (National Center for Advancing Translational Sciences (NCATS), 2020)
Among all 120,000 compounds or so, about 5,300 (4.4%) were called active. The shares of active, inactive and inconclusive entries below differ from those in the screen. The call rests on the fitted dose curve; in most records, active means well fitted inhibition curve with a large enough effect; inconclusive means small, poorly fitted or top-dose-only effect; inactive means no such curve, though single readings can be large or run the other way. Potencies beside an inconclusive call are fits to weak or partial responses and may not hold up.

Experiment: qHTS Primary assay for Inhibitors of Plasmodium falciparum Dd2 growth in vitro; further: nearly all actives have a fitted effect of over 65% in size;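 on activity, negative = inhibition: plate controls were DMSO vehicle for no effect and reference drug for full effect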
Details: P. falciparum Dd2 growth, SYBR Green, 72 h; activity, negative = inhibition: at 28.9 µM (top of the series) unless noted; series mostly up to 28.9 µM
How it was run: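 Readout: SYBR Green fluorescence, 485 nm excitation, 535 nm emission, after ~16 h lysis at 37C. Before that, Dd2-infected red cells (2.5% hematocrit) grew 72 h with compound, 29 uM top final concentration.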
Potency means the concentration at half of the fitted maximal effect; tags describe the fitted curve by direction and shape.

| SMILES | Potency | activity, negative = inhibition |
| --- | --- | --- |
| C=CCO[C@@H]1CCN2C(=O)[C@@H]3C[C@@H](OCC4CC4)CN3C(=O)[C@@H]2C1 | inactive |  |
| O=C(NC1CCCCCC1)c1nnn2cc(-c3ccc(Cl)cc3)[nH]c(=O)c12 | inactive |  |
| CCOc1cccc(CNC(=O)c2c(OC)cc(=O)n3c2CCCC3)c1 | inconclusive: 10 µM [inhibitor, single point] |  |
| O=C1CC(c2ccccc2)N(Cc2ccncc2)CCCN(C(=O)c2ccoc2)CCN1 (stereo not given) | inconclusive: 11.2 µM [inhibitor, single point] |  |
| Cc1cc(NC(=O)CCn2ccn3nc4c(c3c2=O)CCCC4)ccc1F | inconclusive: 11.2 µM [inhibitor, single point] |  |
| Cc1noc2c(NCc3ccccc3)cc(-c3ccccc3)nc12 | inconclusive: 0.398 µM [inhibitor, full curve, poor fit] |  |
| O=C(Cn1ccn2nc(-c3ccc(F)cc3)c(CO)c2c1=O)N1CCCc2ccccc21 | inconclusive: 3.55 µM [inhibitor, full curve] |  |
| CC1=C(c2ccc(C)c(C)c2)S(=O)(=O)N=C1N1CCC(C(=O)N2CCC(C)CC2)CC1 | inconclusive: 8.91 µM [inhibitor, single point] |  |
| Cc1ccccc1OCc1ccc(-c2nc(C#N)c(NCc3cccnc3)o2)o1 | inactive |  |
| c1ccc(-c2nnc3ccc(NCc4cccs4)nn23)nc1 | inactive |  |
| COc1ccc(-c2noc(-c3cccn3CC(=O)N(C)c3ccccc3)n2)cc1F | inconclusive: 3.98 µM [inhibitor, single point] |  |
| CC(NC(=O)C1(c2ccc(NS(C)(=O)=O)cc2)CCCCC1)c1ccccc1 (stereo not given) | inconclusive: 12.6 µM [inhibitor, partial curve, poor fit] |  |
| Cn1c(C(=O)Nc2cccc(C(F)(F)F)c2)cc2c(=O)n3ccccc3nc21 | inactive |  |
| CC(C)C[C@@H]1N[C@H](C(=O)NCCCn2ccnc2)Cc2c[nH]c3cccc1c23 | active: 8.91 µM |  |
| CN1[C@@H](CCC(=O)NCc2cccs2)CNC(=O)[C@@H]2[C@H]1CCN2Cc1cccs1 | inconclusive: 0.794 µM [inhibitor, partial curve, poor fit] |  |
| CC1(c2ccccc2)N(Cc2ccccc2)C(=O)OC12CCN(Cc1cccc(O)c1)CC2 (stereo not given) | inconclusive: 0.708 µM [inhibitor, full curve, poor fit] |  |
| COc1ncccc1CN1C[C@H]2[C@H](C1)[S+](=O)([O-])C(C)(C)C(=O)N2CC1CCOCC1 | inactive |  |
| CCC1CCC(C(=O)NC(C(=O)Nc2cccc(OC)c2)C(C)C)CC1 (stereo not given) | inactive |  |
| COc1ccccc1CCC(=O)N1C[C@@H](CO)[C@H](NC(C)=O)C1 | inactive |  |
| COc1ccc(NC(=O)Cn2ccn3nc(-c4ccccc4)c(CO)c3c2=O)cc1 | inactive |  |
| COc1ccc(N2CC(C(=O)N3CCN(Cc4ccccc4)CC3)NC2=O)cc1 (stereo not given) | inactive |  |
| COC(=O)c1c(SCC(=O)Nc2cc(OC)cc(OC)c2)[nH]c2ccc(C)cc2c1=O | inconclusive: 17.8 µM [inhibitor, single point] |  |

| SMILES | Potency | activity, negative = inhibition |
| --- | --- | --- |
| CC(C)CCN1CCc2nc(C(C)C)nc(-c3ccc(Cl)cc3)c2CC1 | inconclusive: 10 µM [inhibitor, single point] |  |
| COc1ccc(-c2nc3ccc(NS(=O)(=O)c4ccc(C)cc4)cc3o2)cc1 | inconclusive: 17.8 µM [inhibitor, single point] |  |
| Cc1ccc(CC(=O)NC2CCN(c3nnc4cccc(C)n34)CC2)cc1 | inactive |  |
| Cc1ccc(S(=O)(=O)N2C[C@@H](C(N)=O)[C@H](C3CCN(C)CC3)C2)cc1Cl | inactive |  |
| CCN(C(=O)c1nn(-c2ccc(OC)c(Cl)c2)c(=O)c2c1c1ccccc1n2C)c1cccc(C(F)(F)F)c1 | inconclusive: 10 µM [inhibitor, single point] |  |
| CCOCC1(C)COc2ccc(C(=O)Nc3ccccn3)cc2N1 (stereo not given) | inconclusive: 14.1 µM [inhibitor, partial curve, poor fit] |  |
| CCOc1cc(C(=O)Nc2cc3c(cc2N2CCOCC2)n(C)c(=O)n3C)cc(OCC)c1OCC | inconclusive: 8.91 µM [inhibitor, partial curve, poor fit] |  |
| CCOC(=O)c1c(-c2ccc(OC)cc2)oc2ccc(OCc3ccccc3C)cc12 | inconclusive: 17.8 µM [inhibitor, single point] |  |
| CNC(=O)c1cc2cc(-c3c(C)noc3C)nc(-c3cccc(OC)c3OC)c2o1 | inconclusive: 31.6 µM [inhibitor, single point] |  |
| Cc1ccsc1C(=O)NC1CCN(c2cc(-c3ccc(Cl)cc3)[nH]n2)C1 (stereo not given) | inconclusive: 10 µM [inhibitor, single point] |  |
| O=C(CC1CNCCO1)N1CCc2nc(-c3ccc(Cl)cc3)[nH]c2C1 (stereo not given) | inconclusive: 7.94 µM [inhibitor, partial curve, poor fit] |  |
| COc1cccc(CN2CC3(C2)C(=O)N(Cc2ccccc2)C(=O)[C@@H]2C[C@@H](O)CN23)c1 | inconclusive: 22.4 µM [inhibitor, single point] |  |
| COc1cc2c(cc1OC)C(CNC(=O)c1ccc(Cl)cc1)N(C(=O)Nc1ccccc1)CC2 (stereo not given) | inconclusive: 0.794 µM [inhibitor, partial curve] |  |
| CCC(=O)Nc1ccc2nnc(-c3ccc(C(=O)Nc4ccc(OC)cc4)cc3)n2c1 | active: 0.708 µM |  |
| CCOc1cc(=O)n2c(c1C(=O)N1CCCc3ccccc31)CCCC2 | inactive |  |
| O=C1NCCCCCN(Cc2cccnc2)[C@@H]2CN(C(=O)NC3CCCCC3)CC[C@@H]12 | inconclusive: 10 µM [inhibitor, single point] |  |
| Cc1cc(CNC(=O)C2CCCCn3nnnc32)c2[nH]c(-c3ccccc3)c(C)c2c1 (stereo not given) | inconclusive: 10 µM [inhibitor, single point] |  |
| Cc1noc(-c2ccc(C(C)(C)C)cc2)c1C(=O)NCc1ccc(F)cc1F | inactive |  |
| CC(=O)N1CCc2c(sc(NC(=O)CSc3ccccc3)c2-c2nc3ccccc3s2)C1 | active: 2 µM |  |
| Cc1cccc(CSc2ncc(Cl)c(C(=O)Nc3sc4c(c3C(N)=O)CCCC4)n2)c1 | inconclusive: 4.47 µM [inhibitor, partial curve, poor fit] |  |
| O=C(c1ccc(F)c(F)c1)N1CCC[C@H]1c1nc(-c2ccccc2)no1 | inactive |  |
| Clc1cccc(-c2cnc3n2C[C@H](CNCc2ccccc2)OC3)c1 | inconclusive: 31.6 µM [inhibitor, single point] |  |

| SMILES | Potency | activity, negative = inhibition |
| --- | --- | --- |
| CCN1CCN(C2(C(=O)NCCC3CCCCO3)Cc3ccccc3C2)CC1 (stereo not given) | inconclusive: 10 µM [inhibitor, single point] |  |
| O=Cc1ccc(N2CCN(C(=O)N3CCCCC3)CC2=O)cc1 | inactive |  |
| COCC1CCCN(C(=O)c2ccc(-c3c(OC)cc(C)cc3OC)nc2)C1 (stereo not given) | inactive |  |
| CC1CCCCN1C(=O)CSc1n[nH]c(-c2ccccc2Cl)n1 (stereo not given) | inactive |  |
| COc1cc(Nc2nc(SCC(=O)c3ccc(Br)cc3)nc3ccccc23)cc(OC)c1 | inconclusive: 10 µM [inhibitor, single point] |  |
| O=C(NCCCc1ccncc1)C1CC12CCN(C(=O)c1cccc(C(F)(F)F)c1)CC2 (stereo not given) | inconclusive: 14.1 µM [inhibitor, partial curve, poor fit] |  |
| COc1ccc(-c2cc(-c3ccc(CO)cc3)cn3cncc23)cc1 | inconclusive: 5.62 µM [inhibitor, single point] |  |
| COCCN1CCCC1c1nc(C2CN(C(=O)c3ncccc3C)C2)no1 (stereo not given) | inactive |  |
| CCOC(=O)c1ccc2c(c1)N(CC(=O)N(C)c1ccccc1)C(=O)c1ccccc1S2 | inconclusive: 1.58 µM [inhibitor, full curve, poor fit] |  |
| N#Cc1cccc(C2CCN(c3cc(C4CC4)ncn3)CC2)c1 | inconclusive: 10 µM [inhibitor, partial curve, poor fit] |  |
| CCCCN(C)CCCNC(=O)Cn1ncc2c3ccccc3n(Cc3ccccc3)c2c1=O | inconclusive: 1.58 µM [inhibitor, partial curve, poor fit] |  |
| O=C(Cc1cccc(F)c1)N1[C@H]2CC[C@@H]1c1cnc(-c3ccccc3)nc1C2 | inconclusive: 10 µM [inhibitor, single point] |  |
| COC(=O)c1cc2n(n1)CCCN(C(=O)c1cc(C)nc3ccc(C)cc13)C2 | inactive |  |
| O=C1N(c2ccccc2)c2ccccc2C12CCN(Cc1cccnc1)C2 (stereo not given) | inconclusive: 10 µM [inhibitor, single point] |  |
| C#CCNC(=O)C[C@@H]1c2nc(NC(=O)c3ccc(F)cc3)sc2C[C@@H]2[C@](C)(CO)[C@H](O)CC[C@]21C | inactive |  |
| Cc1noc([C@@H]2CN(Cc3ccccc3OC(C)C)C[C@H]2CO)n1 | inconclusive: 12.6 µM [inhibitor, partial curve] |  |
| COc1ccc(NC(=O)CSc2nc(-c3ccco3)cc(C(F)(F)F)n2)cc1OC |  | inconclusive: -51.6% [inhibitor] [at 5.79 µM] |
| COc1ccccc1-c1[nH]ncc1CN1CCCN(S(=O)(=O)c2ccccc2)CCC(=O)NCC1 | inconclusive: 7.94 µM [inhibitor, partial curve, poor fit] |  |
| COc1cc(-c2ccnc3nc(CCC4CCCC4)nn23)cc(OC)c1OC | inconclusive: 0.631 µM [inhibitor, partial curve, poor fit] |  |
| O=C1CC(c2ccccc2)N(C(=O)C2CC2)CCCN(C(=O)c2ccc3cc[nH]c3c2)CCN1 (stereo not given) | inconclusive: 15.8 µM [inhibitor, single point] |  |
| CC(NC(=O)c1ccc(-c2ccc(N3CCCCCC3)nc2)cc1)c1cccnc1 (stereo not given) | inconclusive: 3.16 µM [inhibitor, partial curve, poor fit] |  |
